The text below walks through data of patent US20220411523A1 (HEFEI HANKEMAB BIOTECHNOLOGY, published 2022).

The target in test [1] is T1, monkey 4-1BB (Cy4-1BB) (SEQ ID No.6), coated on the ELISA plate (monkey, UniProt Q07011 24-186 (human entry), limits assumed).
T1 chain: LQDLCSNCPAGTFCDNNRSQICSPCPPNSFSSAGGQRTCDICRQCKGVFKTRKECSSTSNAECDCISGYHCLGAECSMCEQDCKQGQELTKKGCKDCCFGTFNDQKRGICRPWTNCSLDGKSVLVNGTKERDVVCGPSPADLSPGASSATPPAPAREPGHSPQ
As to the kind of experiment: ELISA, coated monkey 4-1BB.

Test [2] deals with T2, human 4-1BB (SEQ ID No.5), coated on the ELISA plate (human, UniProt Q07011 24-186, limits assumed).
T2 construct: also called CD137
As to the kind of experiment: ELISA, coated human 4-1BB.

For test [3], the target named is T3, human 4-1BB full length, on the cell surface (human, UniProt Q07011 24-255).
T3 construct: also called CHO-K1-hu4-1BB; WT (Human 4-1BB full length, Expi293 transient)
As to the kind of experiment: FACS, CHO-K1-hu4-1BB cells.

B1: scFvB60302 (scFv)
scFv: QVQLQESGPGLVKPSETLSLTCTVSGSSLTSYGVHWVRQPPGKGLEGLGVIWPGGSTNYNSALMSRLTISKDNSKSQVSLKMSSLTAADTAMYYCARVTGTWYFDVWGQGTTVTVSSGGGGSGGGGSGGGGSDIQMTQSPSSLSASLGDRVTISCSASQGISNYLNWYQQKPDGTVKLLIYYTSTLHSGVPSRFSGSGSGTDFTLTISSLQPEDVATYYCQQYSKLPWTFGGGTKLEIKDKRV[human IgG4 Fc with S228P (EU numbers) cut from this listing]
notes: the whole entry is the construct
One may read the EC50 as the concentration needed to bring the measured effect to its halfway point. Take B1: the EC50 is 0.0566 µg/mL in test [1] and 0.0975 µg/mL in test [2].

B2: scFvB60202 (scFv)
scFv: QVQLQESGPGLVKPSETLSLTCTVSGSSLTSYGVHWVRQPPGKGLEGLGVIWPGGSTNYNSALMSRVTISKDNSKSQVSLKMSSLTAADTAMYYCARVTGTWYFDVWGQGTTVTVSSGGGGSGGGGSGGGGSDIQMTQSPSSLSASLGDRVTISCSASQGISNYLNWYQQKPDGTVKLLIYYTSTLHSGVPSRFSGSGSGTDFTLTISSLQPEDVATYYCQQYSKLPWTFGGGTKLEIKDKRV[human IgG4 Fc with S228P (EU numbers) cut from this listing]
notes: as for B1
B2: the EC50 in test [1] amounted to 0.0608 µg/mL; in test [2], 0.153 µg/mL.

B3: scFvB60301 (scFv)
scFv: QVQLQESGPGLVKPSETLSLTCTVSGSSLTSYGVHWVRQPPGKGLEGLGVIWPGGSTNYNSALMSRLTISKDNSKSQVSLKMSSLTAADTAMYYCARVTGTWYFDVWGQGTTVTVSSGGGGSGGGGSGGGGSDIQMTQSPSSLSASVGDRVTISCSASQGISNYLNWYQQKPDGTVKLLIYYTSTLHSGVPSRFSGSGSGTDFTLTISSLQPEDVATYYCQQYSKLPWTFGGGTKLEIKDKRV[human IgG4 Fc with S228P (EU numbers) cut from this listing]
notes: as for B1
As to B3, the EC50 in test [1] was 0.0517 µg/mL; in test [2] it was 0.0766 µg/mL.

B4: scFvB60103 (scFv)
scFv: QVQLQESGPGLVKPSETLSITCTVSGSSLTSYGVHWVRQPPGKGLEGLGVIWPGGSTNYNSALMSRLTISKDNSKSQVSLKMSSLTAADTAMYYCARVTGTWYFDVWGQGTTVTVSSGGGGSGGGGSGGGGSDIQMTQSPSSLSASLGDRVTISCSASQGISNYLNWYQQKPDGTVKLLIYYTSTLHSGVPSRFSGSGSGTDFTLTISSLQPEDVATYYCQQYSKLPWTFGGGTKLEIKDKRV[human IgG4 Fc with S228P (EU numbers) cut from this listing]
For the molecule B4, the figures for the EC50 in test [3], in test [1] and in test [2] were 1.8 µg/mL, 0.0217 µg/mL and 0.0447 µg/mL, respectively.

B5: scFvB60401 (scFv)
scFv: QVQLQESGPGLVKPSETLSITCTVSGSSLTSYGVHWVRQPPGKGLEGLGVIWPGGSTNYNSALMSRLTISKDNSKSQVSLKMSSLTAADTAMYYCARVTGTWYFDVWGQGTTVTVSSGGGGSGGGGSGGGGSDIQMTQSPSSLSASVGDRVTISCSASQGISNYLNWYQQKPDGTVKLLIYYTSTLHSGVPSRFSGSGSGTDFTLTISSLQPEDVATYYCQQYSKLPWTFGGGTKLEIKDKRV[human IgG4 Fc with S228P (EU numbers) cut from this listing]
notes: as for B1
In the case of B5, the values for the EC50 in test [1] and in test [2] were 0.772 µg/mL and 1.04 µg/mL, respectively.

B6: scFvB60403 (scFv)
scFv: QVQLQESGPGLVKPSETLSITCTVSGSSLTSYGVHWVRQPPGKGLEGLGVIWPGGSTNYNSALMSRLTISKDNSKSQVSLKMSSLTAADTAMYYCARVTGTWYFDVWGQGTTVTVSSGGGGSGGGGSGGGGSDIQMTQSPSSLSASLGDRVTISCSASQGISNYLNWYQQKPDGTVKLLIYYTSTLHSGVPSRFSGSGSGTDYTLTISSLQPEDIATYYCQQYSKLPWTFGGGTKLEIKDKRV[human IgG4 Fc with S228P (EU numbers) cut from this listing]
notes: as for B1
In the case of B6, the EC50 came to 0.108 µg/mL in test [1] and 0.195 µg/mL in test [2].

B7: scFvB60203 (scFv)
scFv: QVQLQESGPGLVKPSETLSLTCTVSGSSLTSYGVHWVRQPPGKGLEGLGVIWPGGSTNYNSALMSRVTISKDNSKSQVSLKMSSLTAADTAMYYCARVTGTWYFDVWGQGTTVTVSSGGGGSGGGGSGGGGSDIQMTQSPSSLSASLGDRVTISCSASQGISNYLNWYQQKPDGTVKLLIYYTSTLHSGVPSRFSGSGSGTDYTLTISSLQPEDIATYYCQQYSKLPWTFGGGTKLEIKDKRV[human IgG4 Fc with S228P (EU numbers) cut from this listing]
notes: as for B1
Regarding B7, the EC50 in test [1] stood at 0.0367 µg/mL; in test [2], 0.0824 µg/mL.

B8: scFvB60201 (scFv)
scFv: QVQLQESGPGLVKPSETLSLTCTVSGSSLTSYGVHWVRQPPGKGLEGLGVIWPGGSTNYNSALMSRVTISKDNSKSQVSLKMSSLTAADTAMYYCARVTGTWYFDVWGQGTTVTVSSGGGGSGGGGSGGGGSDIQMTQSPSSLSASVGDRVTISCSASQGISNYLNWYQQKPDGTVKLLIYYTSTLHSGVPSRFSGSGSGTDFTLTISSLQPEDVATYYCQQYSKLPWTFGGGTKLEIKDKRV[human IgG4 Fc with S228P (EU numbers) cut from this listing]
notes: as for B1
Regarding B8, the results for the EC50 in test [1] and in test [2] were 0.0698 µg/mL and 0.165 µg/mL, respectively.
